# Test results as given in the supplement of paper PMC12217912.
# This is one part of the list. Sequences were assembled here from the parent chain. Inactive controls read about 0.05.
# B1: TEV protease; numbered along this chain (parent)
# chain: MGESLFKGPRDYNPISSSICHLTNESDGHTTSLYGIGFGPFIITNKHLFRRNNGTLVVQSLHGVFKVKDTTTLQQHLVDGRDMIIIRMPKDFPPFPQKLKFREPQREERICLVTTNFQTKSMSSMVSDTSCTFPSGDGIFWKHWIQTKDGQCGSPLVSTRDGFIVGIHSASNFTNTNNYFTSVPKNFMELLTNQEAQQWVSGWRLNADSVLWGGHKVFMVKPEEPFQPVKEATQL
# Variants of: B1
# Test: raw area under fraction-flipped curve 0-4 h after induction (AUC4h, not background-subtracted), DNA-recorder readout of cleavage of the substrate (dimensionless); higher = more cleavage of the substrate by the protease variant
# Settings: temperature: 34 °C; time window: 0-4 h after rhamnose induction
# Protocol: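 In vivo DNA recorder in E. coli TOP10(DE3) ΔrhaA at 34 °C. Each TEVp single-site mutant (parent TEVp 0) is paired with a single-site variant of the 7-mer TEVs (canonical ENLYFQ|S). The substrate sits between flexible linkers in a Bxb1-sfGFP-TEVs-SsrA fusion, so cleavage stabilises Bxb1 and speeds flipping of a recombination array, read by NGS. The value is the raw area under the fraction-flipped curve over 0-4 h after rhamnose induction (AUC4h), with ≥20 reads per time point. It is not background-subtracted; inactive controls average about 0.047.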
# 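Also: Bxb1 expression induced with 0.2% (w/v) L-rhamnose at OD600 near 0.5, cultures sampled hourly, flipped fraction per protease–substrate barcode pair counted by paired-end Illumina sequencing.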
Variant,area with substrate EALYFQS,area with substrate ECLYFQS,area with substrate EDLYFQS,area with substrate EELYFQS,area with substrate EGLYFQS,area with substrate ELLYFQS,area with substrate ERLYFQS,area with substrate ESLYFQS,area with substrate EWLYFQS,area with substrate EHLYFQS,area with substrate EILYFQS,area with substrate EPLYFQS,area with substrate EVLYFQS,area with substrate EQLYFQS,area with substrate EKLYFQS,area with substrate ETLYFQS,area with substrate EYLYFQS,area with substrate EFLYFQS,area with substrate EMLYFQS
MGESLFKGPRDYNPISSSICHLTNESDGHTTSLYGIGFGPFIITNKHLFRRNNGTLVVQSLHGVFKVKDTTTLQQHLVDGRDMIIIRMPKDFPPFPQKLKFREPQREERICLVTTNFQTKSMSSMVSDTSCTFPSGDGIFWKHWIQTKDGQCGSPLVSTRDGFIVGIHSASNFTNTNNYFTSVPKNFLELLTNQEAQQWVSGWRLNADSVLWGGHKVFMVKPEEPFQPVKEATQL [M188L],0.0988,0.114,0.151,0.126,0.0965,0.0944,0.119,0.116,0.0933,,,,,,,,,,
MGESLFKGPRDYNPISSSICHLTNESDGHTTSLYGIGFGPFIITNKHLFRRNNGTLVVQSLHGVFKVKDTTTLQQHLVDGRDMIIIRMPKDFPPFPQKLKFREPQREERICLVTTNFQTKSMSSMVSDTSCTFPSGDGIFWKHWIQTKDGQCGSPLVSTRDGFIVGIHSASNFTNTNNYFTSVPKNFTELLTNQEAQQWVSGWRLNADSVLWGGHKVFMVKPEEPFQPVKEATQL [M188T],0.121,0.115,0.118,0.0944,0.0992,,0.0952,0.0999,,0.112,0.0992,0.119,0.0888,,,,,,
MGESLFKGPRDYNPISSSICHLTNESDGHTTSLYGIGFGPFIITNKHLFRRNNGTLVVQSLHGVFKVKDTTTLQQHLVDGRDMIIIRMPKDFPPFPQKLKFREPQREERICLVTTNFQTKSMSSMVSDTSCTFPSGDGIFWKHWIQTKDGQCGSPLVSTRDGFIVGIHSASNFTNTNNYFTSVPKNFMDLLTNQEAQQWVSGWRLNADSVLWGGHKVFMVKPEEPFQPVKEATQL [E189D],0.103,0.0822,0.134,0.134,0.0522,0.105,0.113,0.104,,,0.0941,0.161,0.0703,0.16,,,,,
MGESLFKGPRDYNPISSSICHLTNESDGHTTSLYGIGFGPFIITNKHLFRRNNGTLVVQSLHGVFKVKDTTTLQQHLVDGRDMIIIRMPKDFPPFPQKLKFREPQREERICLVTTNFQTKSMSSMVSDTSCTFPSGDGIFWKHWIQTKDGQCGSPLVSTRDGFIVGIHSASNFTNTNNYFTSVPKNFMILLTNQEAQQWVSGWRLNADSVLWGGHKVFMVKPEEPFQPVKEATQL [E189I],0.146,0.0931,,0.113,0.0674,,0.093,0.0728,0.0836,0.107,0.078,,,0.118,0.118,0.101,0.0876,,
MGESLFKGPRDYNPISSSICHLTNESDGHTTSLYGIGFGPFIITNKHLFRRNNGTLVVQSLHGVFKVKDTTTLQQHLVDGRDMIIIRMPKDFPPFPQKLKFREPQREERICLVTTNFQTKSMSSMVSDTSCTFPSGDGIFWKHWIQTKDGQCGSPLVSTRDGFIVGIHSASNFTNTNNYFTSVPKNFMVLLTNQEAQQWVSGWRLNADSVLWGGHKVFMVKPEEPFQPVKEATQL [E189V],0.0947,0.0947,0.106,0.0867,0.103,0.0788,0.102,0.0843,0.0892,0.0913,0.105,0.0943,0.1,0.108,0.0896,0.123,0.0881,0.0866,0.057
MGESLFKGPRDYNPISSSICHLTNESDGHTTSLYGIGFGPFIITNKHLFRRNNGTLVVQSLHGVFKVKDTTTLQQHLVDGRDMIIIRMPKDFPPFPQKLKFREPQREERICLVTTNFQTKSMSSMVSDTSCTFPSGDGIFWKHWIQTKDGQCGSPLVSTRDGFIVGIHSASNFTNTNNYFTSVPKNFMELITNQEAQQWVSGWRLNADSVLWGGHKVFMVKPEEPFQPVKEATQL [L191I],0.0873,0.103,,0.111,,,,,,0.121,0.116,,0.0951,0.108,0.12,,0.104,,0.0998
MGESLFKGPRDYNPISSSICHLTNESDGHTTSLYGIGFGPFIITNKHLFRRNNGTLVVQSLHGVFKVKDTTTLQQHLVDGRDMIIIRMPKDFPPFPQKLKFREPQREERICLVTTNFQTKSMSSMVSDTSCTFPSGDGIFWKHWIQTKDGQCGSPLVSTRDGFIVGIHSASNFTNTNNYFTSVPKNFMELLDNQEAQQWVSGWRLNADSVLWGGHKVFMVKPEEPFQPVKEATQL [T192D],0.108,0.0907,0.106,,,0.0717,0.0882,0.11,,0.112,0.0824,0.156,0.0959,,,,0.114,,
MGESLFKGPRDYNPISSSICHLTNESDGHTTSLYGIGFGPFIITNKHLFRRNNGTLVVQSLHGVFKVKDTTTLQQHLVDGRDMIIIRMPKDFPPFPQKLKFREPQREERICLVTTNFQTKSMSSMVSDTSCTFPSGDGIFWKHWIQTKDGQCGSPLVSTRDGFIVGIHSASNFTNTNNYFTSVPKNFMELLPNQEAQQWVSGWRLNADSVLWGGHKVFMVKPEEPFQPVKEATQL [T192P],0.0607,0.0659,0.065,0.0684,0.0568,0.0577,0.0667,0.0659,0.0667,0.056,0.0613,0.0723,0.0596,0.0967,0.0526,,,,
MGESLFKGPRDYNPISSSICHLTNESDGHTTSLYGIGFGPFIITNKHLFRRNNGTLVVQSLHGVFKVKDTTTLQQHLVDGRDMIIIRMPKDFPPFPQKLKFREPQREERICLVTTNFQTKSMSSMVSDTSCTFPSGDGIFWKHWIQTKDGQCGSPLVSTRDGFIVGIHSASNFTNTNNYFTSVPKNFMELLYNQEAQQWVSGWRLNADSVLWGGHKVFMVKPEEPFQPVKEATQL [T192Y],0.138,,,,,0.079,,,,,0.136,,,0.0993,0.156,0.127,,,
MGESLFKGPRDYNPISSSICHLTNESDGHTTSLYGIGFGPFIITNKHLFRRNNGTLVVQSLHGVFKVKDTTTLQQHLVDGRDMIIIRMPKDFPPFPQKLKFREPQREERICLVTTNFQTKSMSSMVSDTSCTFPSGDGIFWKHWIQTKDGQCGSPLVSTRDGFIVGIHSASNFTNTNNYFTSVPKNFMELLTPQEAQQWVSGWRLNADSVLWGGHKVFMVKPEEPFQPVKEATQL [N193P],0.0623,0.0699,0.0696,0.0735,0.0476,0.0554,,0.0837,,0.0676,0.0582,0.0637,0.0544,0.0655,0.0762,,,,
MGESLFKGPRDYNPISSSICHLTNESDGHTTSLYGIGFGPFIITNKHLFRRNNGTLVVQSLHGVFKVKDTTTLQQHLVDGRDMIIIRMPKDFPPFPQKLKFREPQREERICLVTTNFQTKSMSSMVSDTSCTFPSGDGIFWKHWIQTKDGQCGSPLVSTRDGFIVGIHSASNFTNTNNYFTSVPKNFMELLTNSEAQQWVSGWRLNADSVLWGGHKVFMVKPEEPFQPVKEATQL [Q194S],0.117,0.14,,0.12,0.0889,0.0942,0.102,,,,0.0939,0.127,0.0947,0.113,,,,0.0997,0.123
MGESLFKGPRDYNPISSSICHLTNESDGHTTSLYGIGFGPFIITNKHLFRRNNGTLVVQSLHGVFKVKDTTTLQQHLVDGRDMIIIRMPKDFPPFPQKLKFREPQREERICLVTTNFQTKSMSSMVSDTSCTFPSGDGIFWKHWIQTKDGQCGSPLVSTRDGFIVGIHSASNFTNTNNYFTSVPKNFMELLTNQCAQQWVSGWRLNADSVLWGGHKVFMVKPEEPFQPVKEATQL [E195C],0.12,0.0986,0.108,0.0875,,,0.0919,0.0912,0.0572,0.111,0.0869,0.144,0.0834,0.0904,,,0.111,,0.0924
MGESLFKGPRDYNPISSSICHLTNESDGHTTSLYGIGFGPFIITNKHLFRRNNGTLVVQSLHGVFKVKDTTTLQQHLVDGRDMIIIRMPKDFPPFPQKLKFREPQREERICLVTTNFQTKSMSSMVSDTSCTFPSGDGIFWKHWIQTKDGQCGSPLVSTRDGFIVGIHSASNFTNTNNYFTSVPKNFMELLTNQDAQQWVSGWRLNADSVLWGGHKVFMVKPEEPFQPVKEATQL [E195D],0.0508,0.113,,0.114,,,0.0886,0.122,0.0596,0.095,,0.111,0.0885,0.113,0.0567,,0.129,0.138,0.107
MGESLFKGPRDYNPISSSICHLTNESDGHTTSLYGIGFGPFIITNKHLFRRNNGTLVVQSLHGVFKVKDTTTLQQHLVDGRDMIIIRMPKDFPPFPQKLKFREPQREERICLVTTNFQTKSMSSMVSDTSCTFPSGDGIFWKHWIQTKDGQCGSPLVSTRDGFIVGIHSASNFTNTNNYFTSVPKNFMELLTNQENQQWVSGWRLNADSVLWGGHKVFMVKPEEPFQPVKEATQL [A196N],0.115,0.0987,0.149,,,0.0941,0.0964,0.117,0.0845,0.0817,,,0.101,0.117,0.112,,,,0.131
MGESLFKGPRDYNPISSSICHLTNESDGHTTSLYGIGFGPFIITNKHLFRRNNGTLVVQSLHGVFKVKDTTTLQQHLVDGRDMIIIRMPKDFPPFPQKLKFREPQREERICLVTTNFQTKSMSSMVSDTSCTFPSGDGIFWKHWIQTKDGQCGSPLVSTRDGFIVGIHSASNFTNTNNYFTSVPKNFMELLTNQEACQWVSGWRLNADSVLWGGHKVFMVKPEEPFQPVKEATQL [Q197C],0.151,0.116,0.137,,0.105,,,,,0.141,0.0937,,0.0858,0.132,0.0894,0.113,0.112,,0.148
MGESLFKGPRDYNPISSSICHLTNESDGHTTSLYGIGFGPFIITNKHLFRRNNGTLVVQSLHGVFKVKDTTTLQQHLVDGRDMIIIRMPKDFPPFPQKLKFREPQREERICLVTTNFQTKSMSSMVSDTSCTFPSGDGIFWKHWIQTKDGQCGSPLVSTRDGFIVGIHSASNFTNTNNYFTSVPKNFMELLTNQEAQVWVSGWRLNADSVLWGGHKVFMVKPEEPFQPVKEATQL [Q198V],0.138,0.101,0.153,,0.0882,0.105,,,,0.12,,0.104,,0.098,,,0.106,,0.123
MGESLFKGPRDYNPISSSICHLTNESDGHTTSLYGIGFGPFIITNKHLFRRNNGTLVVQSLHGVFKVKDTTTLQQHLVDGRDMIIIRMPKDFPPFPQKLKFREPQREERICLVTTNFQTKSMSSMVSDTSCTFPSGDGIFWKHWIQTKDGQCGSPLVSTRDGFIVGIHSASNFTNTNNYFTSVPKNFMELLTNQEAQYWVSGWRLNADSVLWGGHKVFMVKPEEPFQPVKEATQL [Q198Y],0.108,0.0838,0.114,0.129,0.108,0.0765,0.0981,0.093,0.0762,0.0787,0.103,0.0485,0.0838,0.0997,0.0936,0.0993,,0.0953,0.0998
MGESLFKGPRDYNPISSSICHLTNESDGHTTSLYGIGFGPFIITNKHLFRRNNGTLVVQSLHGVFKVKDTTTLQQHLVDGRDMIIIRMPKDFPPFPQKLKFREPQREERICLVTTNFQTKSMSSMVSDTSCTFPSGDGIFWKHWIQTKDGQCGSPLVSTRDGFIVGIHSASNFTNTNNYFTSVPKNFMELLTNQEAQQWVPGWRLNADSVLWGGHKVFMVKPEEPFQPVKEATQL [S201P],0.0754,0.0622,0.0559,,0.0468,0.0544,0.0574,0.062,0.0568,0.0758,0.0534,,0.064,0.0656,,0.0596,,,0.0587
